Experimental data reported in article PMC11410653.
Read-outs that look alike come from different tables or passages of the source. These are yes or no findings as the source states them, for the method shown. In cells and extracts the contact can be indirect. Some entries that bind do so weakly or less than the wild type. Sequences can lack the tags named with a protein.

The chains behind the UniProt entries cited, without tags or fusion partners. Where a name states a change or a piece, a line headed by the entry shows the natural chain unless it says otherwise. Residues count along the entry.
UniProt O81283: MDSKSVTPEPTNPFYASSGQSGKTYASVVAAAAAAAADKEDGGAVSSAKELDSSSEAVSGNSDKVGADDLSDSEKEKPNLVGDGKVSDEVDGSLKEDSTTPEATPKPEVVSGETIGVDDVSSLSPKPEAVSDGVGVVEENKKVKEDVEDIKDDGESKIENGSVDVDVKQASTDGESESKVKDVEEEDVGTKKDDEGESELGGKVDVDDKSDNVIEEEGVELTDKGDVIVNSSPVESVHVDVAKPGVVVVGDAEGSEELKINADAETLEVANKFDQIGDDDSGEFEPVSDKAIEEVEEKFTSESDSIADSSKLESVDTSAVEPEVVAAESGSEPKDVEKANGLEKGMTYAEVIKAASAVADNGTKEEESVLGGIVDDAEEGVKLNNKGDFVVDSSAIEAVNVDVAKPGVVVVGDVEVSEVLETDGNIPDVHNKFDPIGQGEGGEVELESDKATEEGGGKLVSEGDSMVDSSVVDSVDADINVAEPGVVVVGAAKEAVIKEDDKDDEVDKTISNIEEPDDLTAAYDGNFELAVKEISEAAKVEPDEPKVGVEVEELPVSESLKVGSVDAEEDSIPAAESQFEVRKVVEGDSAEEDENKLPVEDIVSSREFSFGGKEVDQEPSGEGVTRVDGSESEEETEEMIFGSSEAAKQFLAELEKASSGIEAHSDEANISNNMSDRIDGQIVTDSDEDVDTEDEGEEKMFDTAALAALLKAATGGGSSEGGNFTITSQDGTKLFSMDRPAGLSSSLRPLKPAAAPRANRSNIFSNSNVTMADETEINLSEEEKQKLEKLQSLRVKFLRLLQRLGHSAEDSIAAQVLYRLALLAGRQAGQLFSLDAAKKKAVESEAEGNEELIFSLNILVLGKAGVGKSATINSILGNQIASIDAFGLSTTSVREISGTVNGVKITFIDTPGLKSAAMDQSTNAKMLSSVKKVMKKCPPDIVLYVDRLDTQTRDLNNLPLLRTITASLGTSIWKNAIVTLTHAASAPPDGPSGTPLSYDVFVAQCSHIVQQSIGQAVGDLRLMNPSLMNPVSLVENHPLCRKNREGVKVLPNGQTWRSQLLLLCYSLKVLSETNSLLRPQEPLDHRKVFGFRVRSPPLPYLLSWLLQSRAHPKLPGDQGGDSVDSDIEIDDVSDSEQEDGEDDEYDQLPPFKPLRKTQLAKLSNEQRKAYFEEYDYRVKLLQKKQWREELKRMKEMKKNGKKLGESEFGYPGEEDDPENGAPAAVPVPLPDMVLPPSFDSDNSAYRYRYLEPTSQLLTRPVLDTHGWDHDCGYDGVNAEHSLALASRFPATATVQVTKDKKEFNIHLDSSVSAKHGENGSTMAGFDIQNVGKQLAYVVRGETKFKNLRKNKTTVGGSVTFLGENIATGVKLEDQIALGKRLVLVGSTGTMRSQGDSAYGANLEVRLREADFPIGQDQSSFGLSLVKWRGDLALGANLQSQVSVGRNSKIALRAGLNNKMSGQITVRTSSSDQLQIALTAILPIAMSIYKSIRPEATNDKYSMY
UniProt Q8H159, residues 1-76: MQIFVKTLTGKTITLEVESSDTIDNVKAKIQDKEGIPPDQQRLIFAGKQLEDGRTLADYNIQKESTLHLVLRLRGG
UniProt Q9SLF3: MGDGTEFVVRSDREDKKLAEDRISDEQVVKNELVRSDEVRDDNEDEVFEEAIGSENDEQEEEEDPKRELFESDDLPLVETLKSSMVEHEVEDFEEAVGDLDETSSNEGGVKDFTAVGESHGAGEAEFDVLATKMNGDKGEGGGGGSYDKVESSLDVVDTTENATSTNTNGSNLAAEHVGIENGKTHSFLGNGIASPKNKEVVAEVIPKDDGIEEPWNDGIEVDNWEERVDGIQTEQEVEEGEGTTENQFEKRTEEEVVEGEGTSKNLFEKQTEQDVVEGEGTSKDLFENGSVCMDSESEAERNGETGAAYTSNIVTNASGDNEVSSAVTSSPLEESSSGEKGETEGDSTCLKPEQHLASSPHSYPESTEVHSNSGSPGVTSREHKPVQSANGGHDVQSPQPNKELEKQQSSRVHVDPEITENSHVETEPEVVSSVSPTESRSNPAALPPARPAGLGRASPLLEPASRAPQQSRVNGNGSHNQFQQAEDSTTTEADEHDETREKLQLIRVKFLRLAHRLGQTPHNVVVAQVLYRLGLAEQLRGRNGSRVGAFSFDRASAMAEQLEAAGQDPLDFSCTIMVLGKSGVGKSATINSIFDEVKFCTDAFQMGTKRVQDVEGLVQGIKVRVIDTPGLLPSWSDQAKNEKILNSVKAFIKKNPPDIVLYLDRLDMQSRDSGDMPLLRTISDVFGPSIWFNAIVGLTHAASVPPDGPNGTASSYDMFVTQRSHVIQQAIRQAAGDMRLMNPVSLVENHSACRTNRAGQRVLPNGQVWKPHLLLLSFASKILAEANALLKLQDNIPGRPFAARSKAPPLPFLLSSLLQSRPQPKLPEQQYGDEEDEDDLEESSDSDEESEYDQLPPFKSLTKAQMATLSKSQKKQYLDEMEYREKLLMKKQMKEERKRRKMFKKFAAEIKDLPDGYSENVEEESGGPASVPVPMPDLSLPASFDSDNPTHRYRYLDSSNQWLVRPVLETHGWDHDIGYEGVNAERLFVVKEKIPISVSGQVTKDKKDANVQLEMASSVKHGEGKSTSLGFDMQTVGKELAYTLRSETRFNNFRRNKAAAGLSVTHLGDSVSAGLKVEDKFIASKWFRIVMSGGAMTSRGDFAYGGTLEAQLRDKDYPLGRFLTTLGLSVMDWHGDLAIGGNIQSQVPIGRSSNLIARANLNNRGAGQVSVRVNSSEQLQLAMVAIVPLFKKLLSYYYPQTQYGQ
UniProt P54609, residues 191-809: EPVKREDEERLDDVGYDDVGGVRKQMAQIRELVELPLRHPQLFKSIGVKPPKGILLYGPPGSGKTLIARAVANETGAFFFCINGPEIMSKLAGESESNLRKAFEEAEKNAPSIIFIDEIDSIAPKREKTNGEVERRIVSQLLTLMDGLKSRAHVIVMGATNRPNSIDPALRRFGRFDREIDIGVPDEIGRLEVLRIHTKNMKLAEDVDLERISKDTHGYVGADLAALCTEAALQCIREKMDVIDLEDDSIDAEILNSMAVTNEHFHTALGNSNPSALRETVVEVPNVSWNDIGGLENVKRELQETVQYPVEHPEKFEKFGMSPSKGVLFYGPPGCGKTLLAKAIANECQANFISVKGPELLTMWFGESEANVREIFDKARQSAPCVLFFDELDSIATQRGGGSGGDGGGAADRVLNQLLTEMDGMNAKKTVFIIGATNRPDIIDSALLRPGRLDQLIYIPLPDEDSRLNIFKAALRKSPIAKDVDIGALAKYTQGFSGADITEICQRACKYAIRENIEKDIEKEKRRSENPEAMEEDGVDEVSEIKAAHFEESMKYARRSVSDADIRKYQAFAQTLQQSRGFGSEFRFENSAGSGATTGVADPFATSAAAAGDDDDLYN

What was measured:
[1] = biological target: T1, PUX10–YFP (A. thaliana) (UniProt Q9M0N1); experiment: co-IP; YFP-tagged bait precipitated with GFP-Trap Magnetic Agarose from solubilised protoplasts; 25 mM Tris-HCl pH 7.5, 150 mM NaCl, 1 mM EDTA, 1% Triton X-100; 4 °C; immunoblot of prey
T1 sequence: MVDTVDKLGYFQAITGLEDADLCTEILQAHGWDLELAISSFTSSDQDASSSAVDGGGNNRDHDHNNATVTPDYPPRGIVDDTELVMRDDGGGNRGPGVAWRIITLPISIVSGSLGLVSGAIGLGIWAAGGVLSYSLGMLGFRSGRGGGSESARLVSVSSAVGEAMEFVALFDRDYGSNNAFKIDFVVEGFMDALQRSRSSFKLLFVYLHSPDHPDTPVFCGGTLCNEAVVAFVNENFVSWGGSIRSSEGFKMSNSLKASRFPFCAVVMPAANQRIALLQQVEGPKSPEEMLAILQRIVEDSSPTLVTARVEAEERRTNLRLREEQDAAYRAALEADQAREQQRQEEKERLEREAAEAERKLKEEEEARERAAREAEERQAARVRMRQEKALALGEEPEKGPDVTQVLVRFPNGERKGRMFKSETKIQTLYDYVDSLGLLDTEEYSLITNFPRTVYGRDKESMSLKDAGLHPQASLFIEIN

[2] = biological target: T2, PUX10–nYFP (A. thaliana) (UniProt Q9M0N1); experiment: split reporter; one nYFP fusion and one cYFP fusion (pSATN system, EYFP split between residues 174 and 175) co-transfected into WT Arabidopsis protoplasts; overnight incubation; reconstituted YFP by confocal imaging
T2 sequence: T1 sequence

[3] = biological target: T1, PUX10–YFP (A. thaliana); experiment: co-IP; YFP-tagged bait precipitated with GFP-Trap Magnetic Agarose from solubilised protoplasts; 25 mM Tris-HCl pH 7.5, 150 mM NaCl, 1 mM EDTA, 1% Triton X-100; 4 °C; immunoblot of prey; remark: listed apart in the source
[4] = biological target: T3, SP1–nYFP (A. thaliana) (UniProt Q8L7N4); experiment: split reporter; one nYFP fusion and one cYFP fusion (pSATN system, EYFP split between residues 174 and 175) co-transfected into WT Arabidopsis protoplasts; overnight incubation; reconstituted YFP by confocal imaging
T3 sequence: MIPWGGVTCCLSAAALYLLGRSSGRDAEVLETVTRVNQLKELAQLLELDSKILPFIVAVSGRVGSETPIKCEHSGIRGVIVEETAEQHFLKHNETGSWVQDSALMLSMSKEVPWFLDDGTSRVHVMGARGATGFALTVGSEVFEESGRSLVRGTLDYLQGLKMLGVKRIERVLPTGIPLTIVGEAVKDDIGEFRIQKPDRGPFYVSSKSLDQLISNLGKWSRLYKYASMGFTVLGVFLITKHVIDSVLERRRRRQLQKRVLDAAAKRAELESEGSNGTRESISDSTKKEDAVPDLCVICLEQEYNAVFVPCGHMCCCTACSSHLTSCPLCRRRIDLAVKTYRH

[5] = biological target: T4, SP1–MYC (A. thaliana) (UniProt Q8L7N4); experiment: co-IP; MYC-tagged bait precipitated with EZview Red Anti-c-Myc Affinity Gel from solubilised protoplasts; 25 mM Tris-HCl pH 7.5, 150 mM NaCl, 1 mM EDTA, 1% Triton X-100; 4 °C; anti-GFP immunoblot of prey
T4 sequence: T3 sequence

## TOC159 (endogenous) (from UniProt O81283 1-1503)
[1]
  binding: binds

## FLAG–Ub (from UniProt Q8H159 1-76)
[1]
  binding: binds

## cYFP–TOC159 (from UniProt O81283 1-1503)
[2]
  binding: binds

## cYFP–TOC132 (from UniProt Q9SLF3 1-1206)
[2]
  binding: binds

## Cdc48(∆Nterm)–HA (from UniProt P54609 191-809) (domain or fragment)
[1]
  binding: no binding

B1: TOC75 (endogenous) (protein, UniProt Q9STE8 141-818)
chain: DEEQSPDWDSHGLPANIVVQLNKLSGFKKYKVSDIMFFDRRRQTTIGTEDSFFEMVSIRPGGVYTKAQLQKELETLATCGMFEKVDLEGKTKPDGTLGVTISFAESTWQSADRFRCINVGLMVQSKPIEMDSDMTDKEKLEYYRSLEKDYKRRIDRARPCLLPAPVYGEVMQMLRDQGKVSARLLQRIRDRVQKWYHDEGYACAQVVNFGNLNTKEVVCEVVEGDITQLVIQFQDKLGNVVEGNTQVPVVRRELPKQLRQGYVFNIEAGKKALSNINSLGLFSNIEVNPRPDEKNEGGIIVEIKLKELEQKSAEVSTEWSIVPGRGGAPTLASFQPGGSVTFEHRNLQGLNRSLMGSVTTSNFLNPQDDLSFKLEYVHPYLDGVYNPRNRTFKTSCFNSRKLSPVFTGGPGVEEVPPIWVDRAGVKANITENFTRQSKFTYGLVMEEITTRDESSHIAANGQRLLPSGGISADGPPTTLSGTGVDRMAFLQANITRDNTKFVNGAVVGQRTVFQVDQGLGIGSKFPFFNRHQLTMTKFIQLREVEQGAGKSPPPVLVLHGHYGGCVGDLPSYDAFVLGGPYSVRGYNMGELGAARNIAEVGAEIRIPVKNTHVYAFVEHGNDLGSSKDVKGNPTAVYRRTGQGSSYGAGVKLGLVRAEYAVDHNNGTGALFFRFGERY
[3]
  binding: binds

B2: TOC33 (endogenous) (protein, UniProt O23680 1-297)
chain: MGSLVREWVGFQQFPAATQEKLIEFFGKLKQKDMNSMTVLVLGKGGVGKSSTVNSLIGEQVVRVSPFQAEGLRPVMVSRTMGGFTINIIDTPGLVEAGYVNHQALELIKGFLVNRTIDVLLYVDRLDVYRVDELDKQVVIAITQTFGKEIWCKTLLVLTHAQFSPPDELSYETFSSKRSDSLLKTIRAGSKMRKQEFEDSAIAVVYAENSGRCSKNDKDEKALPNGEAWIPNLVKAITDVATNQRKAIHVDKKMVDGSYSDDKGKKLIPLIIGAQYLIVKMIQGAIRNDIKTSGKPL
[3]
  binding: binds

B3: cYFP–TOC33 (protein, UniProt O23680 1-297)
chain: B2 chain
[2]
  binding: binds

B4: cYFP–TOC34 (protein, UniProt Q38906 1-313)
chain: MAALQTLREWIGIQQFPPATQSKLLEILGKYKEEDVSSLTVLVMGKGGVGKSSTVNSVIGEKAAAVSTFQSEGLRPTLVSRTRSGFTLNIIDTPGLIEGGYVNDQAINIIKRFLLNMTIDVLLYVDRLDVYRVDDLDRQVVGAITDAFGKEIWKKSALVLTHAQFSPPDGLNYNHFVSKRSNALLKVIQTGAQLKKQDLQGFSIPVILVENSGRCHKNESDEKILPCGTSWIPNLFNKITEISFNGNKAIHVDKKLVEGPNPNERGKKLIPLMFAFQYLLVMKPLVRAIKSDVSRESKPAWELRDSGLASRRS
[2]
  binding: binds

B5: PUX10–cYFP (protein, UniProt Q9M0N1 1-480)
chain: T1 sequence
[4]
  binding: binds

B6: PUX10–YFP (protein, UniProt Q9M0N1 1-480)
chain: T1 sequence
[5]
  binding: binds

B7: SP2–MYC (protein, UniProt Q5PP51 1-362)
chain: MGAQKSIHAGRAKIDVNVDFTHKLCTSLMFPAFRDTSSPLSLVIGSLCIKHPNLFGGSEKLDVSWDKGLYDSNVLVAFRRPRPEWRPQQCFFIQHSLSPEIGVHGTPVDNFSRSGSGGVNLSKLALGLDLSEPASSKWSSTTSIKFEHVRPINDDGRAITRDLDGFPITCSGNTHDSMVVLKQESRFAKATDQGLSHFSMQIEQGIPVVSKWLIFNRFKFVASKGVRFGPAFLLASLTGGSIVGDMAPYQAFAIGGLGSVRGYGEGAVGSGRSCLVANTELALPLNKMTEGTIFLDCGTDLGSSRLVPGNPSMRQGKPGFGYGFGYGLRFKSPLGHLQVDYAINAFNQKTLYFGVTNLASST
[3]
  binding: binds
